Consider 35 molecules from the antibiotic and cytotoxicity screens of Wong et al. (2023).

The other results are listed elsewhere or left out.

For assay [1], the system named is HSkMC (human skeletal muscle cells). Briefly: cytotoxicity call (relative viability < 0.9). As to conditions: 10 µM.
In assay [2] the test system is S. aureus RN4220. Description: growth inhibition call (relative growth <= 0.2). The note with it: 50 µM.

Turning to `C[C@@H]1CN([C@@H](C)CO)C(=O)c2cc(NC(=O)Nc3cccc4ccccc34)ccc2O[C@H]1CN(C)C(=O)Nc1ccc(F)cc1`, the cytotoxicity call in assay [1] is “inactive”. Moreover, in assay [2], the growth inhibition call is “inactive”.
Turning to `C[C@@H]1CCCCO[C@@H](CN(C)Cc2ccc(Cl)c(Cl)c2)[C@@H](C)CN([C@H](C)CO)C(=O)c2cc(NC(=O)Nc3ccccc3)ccc2O1`, in assay [1], the cytotoxicity call is “inactive”. In assay [2], the growth inhibition call was “inactive”.
Turning to `Cc1noc(C)c1S(=O)(=O)Nc1ccc2c(c1)CC(=O)N([C@@H](C)CO)C[C@H](C)[C@H](CN(C)C(=O)NC(C)C)O2`, the cytotoxicity call in assay [1] was “inactive”. Further, the growth inhibition call in assay [2] was “inactive”.
In the case of `Cc1noc(C)c1S(=O)(=O)Nc1ccc2c(c1)C(=O)N([C@@H](C)CO)C[C@@H](C)[C@@H](CN(C)S(=O)(=O)c1ccc(Cl)cc1)O2`, the cytotoxicity call in assay [1] is “inactive”. The growth inhibition call in assay [2] is “inactive”.
On to `O=C1CN(S(=O)(=O)Cc2ccccc2)C[C@H]2[C@@H](c3ccc(C#Cc4ccc(F)cc4)cc3)[C@@H](CO)N12`, for which the cytotoxicity call in assay [1] was “inactive”. The growth inhibition call in assay [2] was “inactive”.
As to `CCc1c(C(=O)OC)nnn1-c1nonc1N`, the cytotoxicity call in assay [1] was “inactive”. The growth inhibition call in assay [2] was “inactive”.
`C[C@@H]1CCCCO[C@@H](CN(C)C(=O)Nc2cccc3ccccc23)[C@@H](C)CN([C@H](C)CO)C(=O)c2cc(NC(=O)c3ccncc3)ccc2O1`: in assay [1], the cytotoxicity call was “inactive”. Further, in assay [2], the growth inhibition call is “inactive”.
On to `Nc1cc2[nH]cnc2c(O)n1`, for which, in assay [1], the cytotoxicity call was “inactive”. In assay [2], the growth inhibition call is “inactive”.
As for `C=CCC[C@@H](Cc1ccc(F)cc1)C(=O)OC[C@@H](Cc1c[nH]c2ccccc12)NC(=O)[C@H](CC=C)CC(=O)N[C@@H](CO)Cc1ccccc1`, the cytotoxicity call in assay [1] was “inactive”. The growth inhibition call in assay [2] is “inactive”.
Consider `CN1CCN(C(=O)C[C@@H]2CC[C@@H]3[C@@H](COc4ccc(NC(=O)c5cscn5)cc4C(=O)N3C)O2)CC1`, for which, in assay [1], the cytotoxicity call is “inactive”. Besides, the growth inhibition call in assay [2] was “inactive”.
For `NC[C@@H]1CC(=O)N(Cc2ccccc2)C1`, in assay [1], the cytotoxicity call was “inactive”. In addition, the growth inhibition call in assay [2] is “inactive”.
`C[C@H]1CCCCO[C@H](CN(C)S(=O)(=O)c2cn(C)cn2)[C@@H](C)CN([C@@H](C)CO)C(=O)c2cc(NS(=O)(=O)c3cccs3)ccc2O1`: the cytotoxicity call in assay [1] is “inactive”. In addition, the growth inhibition call in assay [2] was “inactive”.
On to `C[C@@H]1CN([C@@H](C)CO)C(=O)c2cccc(NS(=O)(=O)c3ccc(Cl)cc3)c2O[C@H]1CN(C)Cc1ccc(C(=O)Nc2ccccc2N)cc1`, for which the cytotoxicity call in assay [1] was “inactive”. In addition, in assay [2], the growth inhibition call was “inactive”.
Turning to `Oc1cccc(O)c1`, the cytotoxicity call in assay [1] was “inactive”. In addition, the growth inhibition call in assay [2] is “inactive”.
Consider `COc1ccc(NC(=O)N(C)C[C@H]2Oc3c(NS(=O)(=O)c4c(C)noc4C)cccc3C(=O)N([C@@H](C)CO)C[C@H]2C)cc1`, for which the cytotoxicity call in assay [1] is “inactive”. The growth inhibition call in assay [2] is “inactive”.
As for `CN(C)C(=O)C[C@@H]1C=C[C@H](NC(=O)C2CC2)[C@@H](CO)O1`, the cytotoxicity call in assay [1] is “inactive”. Besides, in assay [2], the growth inhibition call is “inactive”.
`C[C@@H]1CCCCO[C@@H](CN(C)Cc2ccccc2)[C@@H](C)CN([C@H](C)CO)C(=O)c2cc(NC(=O)Nc3cccc4ccccc34)ccc2O1`: the cytotoxicity call in assay [1] is “inactive”. Besides, the growth inhibition call in assay [2] is “inactive”.
Regarding `COc1ccc2c3c(n(c2c1)C)[C@H](CO)N(C[C@]13CCN(CC1)C(=O)C1CCOCC1)C(=O)C1CCOCC1`, the cytotoxicity call in assay [1] is “inactive”. For the same molecule, the growth inhibition call in assay [2] is “inactive”.
For `C[C@@H]1CN([C@@H](C)CO)C(=O)c2cc(NC(=O)Nc3ccc4c(c3)OCO4)ccc2O[C@@H](C)CCCCO[C@@H]1CN(C)S(=O)(=O)c1ccccc1`, the cytotoxicity call in assay [1] was “inactive”. In assay [2], the growth inhibition call is “inactive”.
With `C=CCN1C(=O)[C@@]2(O[C@@H](CCO)[C@H]([Si](C)(C)F)[C@H]2C)c2cc(N3C(=O)c4cccc5cccc3c45)ccc21`, the cytotoxicity call in assay [1] was “inactive”. The growth inhibition call in assay [2] is “inactive”.
For the molecule `C[C@@H]1CCCCO[C@@H](CN(C)C(=O)Nc2ccc(F)cc2)[C@@H](C)CN([C@H](C)CO)C(=O)c2cc(NC(=O)NC3CCCCC3)ccc2O1`, the cytotoxicity call in assay [1] is “inactive”. Besides, the growth inhibition call in assay [2] was “inactive”.
On to `Cc1cc(C(=O)Nc2cccc3c2O[C@@H](CN(C)Cc2ccc4c(c2)OCO4)[C@@H](C)CN([C@@H](C)CO)C3=O)n(C)n1`, for which the cytotoxicity call in assay [1] was “inactive”. Also, the growth inhibition call in assay [2] is “inactive”.
With `CN(C)CCCNC(=O)C[C@H]1C=C[C@H](NS(=O)(=O)c2ccccc2)[C@H](CO)O1`, the cytotoxicity call in assay [1] is “inactive”. Also, the growth inhibition call in assay [2] was “inactive”.
`Cc1ccc(S(=O)(=O)N(C)C[C@H]2OCCCC[C@@H](C)Oc3ccc(NC(=O)Cc4ccccc4)cc3C(=O)N([C@@H](C)CO)C[C@@H]2C)cc1`: the cytotoxicity call in assay [1] was “inactive”. For the same molecule, in assay [2], the growth inhibition call is “inactive”.
As for `CO[C@H]1CN(C)C(=O)c2ccc(NS(=O)(=O)CC(F)(F)F)cc2OC[C@H](C)N(C(=O)c2ccc3c(c2)OCO3)C[C@H]1C`, the cytotoxicity call in assay [1] was “inactive”. Also, the growth inhibition call in assay [2] was “inactive”.
With `CC(C)N1C[C@H](C)[C@@H](CN(C)Cc2ccc(Oc3ccccc3)cc2)Oc2c(cccc2-c2nn[nH]n2)C1=O`, the cytotoxicity call in assay [1] is “inactive”. The growth inhibition call in assay [2] was “inactive”.
For `COc1ccc(CN(C)C[C@H]2OCCCC[C@H](C)Oc3ccc(NC(=O)Nc4cccc5ccccc45)cc3C(=O)N([C@H](C)CO)C[C@H]2C)cc1`, in assay [1], the cytotoxicity call is “active”. Also, the growth inhibition call in assay [2] was “inactive”.
In the case of `C[C@@H]1CN([C@@H](C)CO)C(=O)c2cc(-c3cncnc3)cnc2O[C@H]1CN(C)C(=O)Nc1ccc2c(c1)OCO2`, the cytotoxicity call in assay [1] was “inactive”. Also, the growth inhibition call in assay [2] was “inactive”.
On to `C#CCN1C(=O)N(C(=O)c2ccccc2)[C@@]2(COCc3ccc(OC)cc3)Oc3ccccc3[C@@H]1[C@H]2CO[Si](C)(C)C(C)(C)C`, for which the cytotoxicity call in assay [1] is “inactive”. Further, the growth inhibition call in assay [2] is “inactive”.
With `C[C@@H]1CN([C@H](C)CO)C(=O)Cc2cc(NC(=O)CCC(F)(F)F)ccc2O[C@@H]1CN(C)S(=O)(=O)c1ccccc1`, the cytotoxicity call in assay [1] was “inactive”. Besides, the growth inhibition call in assay [2] is “inactive”.
In the case of `O=C1CCC(c2ccc(O)cc2)CC1`, the cytotoxicity call in assay [1] was “inactive”. Besides, in assay [2], the growth inhibition call was “inactive”.
In the case of `C[C@@H]1CCCCO[C@H](CN(C)S(=O)(=O)c2ccc(Cl)cc2)[C@@H](C)CN([C@@H](C)CO)C(=O)c2cc(NS(=O)(=O)c3cccs3)ccc2O1`, the cytotoxicity call in assay [1] is “inactive”. The growth inhibition call in assay [2] was “inactive”.
Take `C[C@H](CO)N1C[C@H](C)[C@H](CN(C)C(=O)c2ccc(N3CCN(C)CC3)cc2)OCc2cnnn2CCCC1=O`: the cytotoxicity call in assay [1] was “inactive”. In assay [2], the growth inhibition call was “inactive”.
In the case of `Cc1ccc(S(=O)(=O)N(C)C[C@H]2Oc3ccc(NS(=O)(=O)c4cccs4)cc3CC(=O)N([C@H](C)CO)C[C@H]2C)cc1`, the cytotoxicity call in assay [1] is “inactive”. In addition, in assay [2], the growth inhibition call is “inactive”.
For the molecule `C[C@H](CO)N1C[C@H](C)[C@@H](CN(C)Cc2ccccc2)Oc2cc(C#CC(C)(C)O)ccc2S1(=O)=O`, the cytotoxicity call in assay [1] was “inactive”. In addition, the growth inhibition call in assay [2] is “inactive”.
